Experimental data: PubChem BioAssay AID1347165 (National Center for Advancing Translational Sciences (NCATS), 2019)
Hit rate of the full screen: of about 220,000 compounds, about 5,700 (2.6%) were called active. Inconclusive means that the source gave no clear call. Such entries were picked first, then a sample of the others. Calls come from the whole dose curve; as a rule, active = well fitted inhibition curve with a large enough effect; inconclusive = small, poorly fitted or top-dose-only effect; inactive = no such curve, though single readings can be large or run the other way. Potencies beside an inconclusive call are fits to weak or partial responses and may not hold up.

These compounds were tested against Lysine-specific demethylase 5B (Homo sapiens) (UniProt Q9UGL1) (assay: Primary screen for KDM5B Histone Demethylases FDH-coupled qHTS). Details: FDH-coupled NADH fluorescence (FDH is formaldehyde dehydrogenase); activity change, negative = inhibition: at 57.7 µM (top of the series) unless noted.
Outline: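 Here, H3K4me3 peptide (12.5 µM in substrate mix) is demethylated by KDM5BΔAP, 200 nM final, after 10 min compound exposure. Formaldehyde product is coupled through FDH (0.25 U/mL in mix) to NADH fluorescence; 30-min ΔRFU feeds dose-response curves.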
Note: nearly all actives have a fitted effect of over 70% in size.
Potency is the fitted concentration of half-maximal effect; tags give direction and shape of the fitted curve.
Throughout, for activity change, negative = inhibition: 0% is about no effect.

Chain of UniProt Q9UGL1 (Q9UGL1 whole entry, looked up): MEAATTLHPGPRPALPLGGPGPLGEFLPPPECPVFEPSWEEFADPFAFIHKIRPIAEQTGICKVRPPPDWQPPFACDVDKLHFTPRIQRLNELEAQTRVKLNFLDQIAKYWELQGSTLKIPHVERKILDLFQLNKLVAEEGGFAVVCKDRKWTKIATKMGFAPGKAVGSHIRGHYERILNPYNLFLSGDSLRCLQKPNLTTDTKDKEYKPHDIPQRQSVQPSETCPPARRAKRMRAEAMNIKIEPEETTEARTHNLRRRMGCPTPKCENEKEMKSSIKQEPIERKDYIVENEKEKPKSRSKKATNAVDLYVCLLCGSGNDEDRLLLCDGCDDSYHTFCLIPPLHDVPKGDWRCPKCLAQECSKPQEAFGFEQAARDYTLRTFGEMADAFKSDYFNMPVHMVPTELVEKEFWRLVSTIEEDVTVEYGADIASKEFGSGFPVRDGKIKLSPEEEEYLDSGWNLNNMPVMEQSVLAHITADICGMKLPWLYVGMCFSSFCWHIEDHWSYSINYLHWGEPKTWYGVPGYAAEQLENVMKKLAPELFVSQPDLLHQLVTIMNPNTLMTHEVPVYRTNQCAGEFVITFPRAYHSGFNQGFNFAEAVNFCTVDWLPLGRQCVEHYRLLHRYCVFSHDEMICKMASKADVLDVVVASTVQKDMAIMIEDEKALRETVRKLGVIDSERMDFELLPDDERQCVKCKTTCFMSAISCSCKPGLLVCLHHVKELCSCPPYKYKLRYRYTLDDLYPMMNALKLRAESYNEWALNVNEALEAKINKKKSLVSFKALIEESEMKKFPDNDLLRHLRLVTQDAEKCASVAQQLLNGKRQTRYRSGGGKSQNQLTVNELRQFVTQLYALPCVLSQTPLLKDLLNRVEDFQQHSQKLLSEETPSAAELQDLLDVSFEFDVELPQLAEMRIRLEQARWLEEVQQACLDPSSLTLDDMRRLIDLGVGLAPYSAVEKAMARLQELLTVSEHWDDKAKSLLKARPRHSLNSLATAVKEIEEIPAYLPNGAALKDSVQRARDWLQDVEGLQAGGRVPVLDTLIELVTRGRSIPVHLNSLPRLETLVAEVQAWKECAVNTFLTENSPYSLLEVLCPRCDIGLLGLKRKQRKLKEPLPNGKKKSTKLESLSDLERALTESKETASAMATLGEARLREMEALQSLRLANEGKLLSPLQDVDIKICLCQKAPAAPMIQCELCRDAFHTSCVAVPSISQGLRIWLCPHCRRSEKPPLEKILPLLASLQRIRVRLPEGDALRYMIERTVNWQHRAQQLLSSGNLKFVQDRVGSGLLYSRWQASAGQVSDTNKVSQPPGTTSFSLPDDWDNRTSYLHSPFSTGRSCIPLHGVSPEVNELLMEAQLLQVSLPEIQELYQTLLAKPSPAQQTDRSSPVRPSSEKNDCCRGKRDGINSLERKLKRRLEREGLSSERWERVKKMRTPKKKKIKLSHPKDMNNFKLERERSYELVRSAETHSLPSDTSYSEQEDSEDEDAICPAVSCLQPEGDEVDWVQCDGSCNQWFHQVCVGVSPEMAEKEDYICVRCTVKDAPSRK

Compound	Potency	activity change, negative = inhibition
CCN1c2cc(C(=O)Nc3cccc(C)c3)ccc2C(=O)N2CCCCCC21 (stereo not drawn)	inconclusive: 35.5 µM [inhibitor, partial curve, poor fit]	
CC(C)Cn1nc(C(=O)N2CCC(C(=O)Nc3ccc4c(c3)OCO4)CC2)c2ccccc2c1=O		inactive: -3.33%
CCCc1noc(-c2cn(C3CCN(C(=O)Cc4cccc(F)c4)CC3)nn2)n1		inactive: 22.7%
Cc1oc(-c2nc(C#N)c(NC3CC3)o2)cc1S(=O)(=O)N(C)C	inconclusive: 22.4 µM [inhibitor, partial curve, poor fit]	
CC1CCC2(CC1)NC(=O)N(NC(=O)CSc1ncnc3ccccc13)C2=O (stereo not drawn)		inactive: 10.2%
O=C1Nc2ccccc2CC12CCN(CC1CCCCC1)CC2	inconclusive: 89.1 µM [inhibitor, partial curve, poor fit]	
CCCN(Cc1cc(=O)[nH]c2c(OC)cccc12)C(=O)Nc1ccccc1OCC		inactive: 52.8%
CCCCN(CCCC)C1=C(C(=O)c2ccccc2)N(C)S(=O)(=O)c2ccccc21	inconclusive: 15.8 µM [inhibitor, partial curve, poor fit]	
Cc1noc(Cn2c(=O)c3cc4c(cc3n(CC(=O)Nc3ccccc3Br)c2=O)OCO4)n1	inconclusive: 35.5 µM [inhibitor, single point]	
COc1ccccc1Nc1cnc2ccc(-c3ccccc3OC)nn12	inconclusive: 35.5 µM [inhibitor, partial curve, poor fit]	
CN(C)c1ccc(CNC(=O)CCS(=O)(=O)c2ccc3c(c2)oc(=O)n3C)cc1		inconclusive: -60.5% [inhibitor] [at 11.5 µM]
CCCCN1C(C(=O)c2ccccc2)=C(OC(C)=O)c2ccccc2S1(=O)=O	inconclusive: 28.2 µM [inhibitor, partial curve, poor fit]	
Cc1ccc(CN2CCC[C@H]2C(=O)N2CCCCCCNC(=O)CC2)s1	inconclusive: 39.8 µM [inhibitor, single point]	
Cc1noc(C)c1-c1cc2cc(CN(C)C)oc2c(N2CCN(Cc3ccccc3)CC2)n1	inconclusive: 22.4 µM [inhibitor, partial curve]	
COc1cccc(CCNC(=O)c2c(C)noc2-c2ccc3c(c2)OCO3)c1	active: 14.1 µM	
CSCCCNC(=S)NCC(C)(C)N1CCOCC1		inactive: 13%
CCOc1cccc(C(=O)Nc2cc(-c3ccc(C)cc3)no2)c1	inconclusive: 25.1 µM [inhibitor, partial curve, poor fit]	
CC1=C(c2ccc(C)c(C)c2)S(=O)(=O)N(Cc2ccc(C(=O)NC(C)c3ccccc3)cc2)C1=O (stereo not drawn)	inconclusive: 39.8 µM [inhibitor, partial curve, poor fit]	
O=C(NCc1ccc(OC(F)(F)F)cc1)c1n[nH]c(=O)c2ccccc12		inactive: 26.1%
Fc1ccc(N2CCN(c3nc(-c4ccccc4F)no3)CC2)cc1		inactive: -23.3%
CCCCNC(=O)C1CC(=O)N(c2n[nH]c3cccc(F)c23)C1 (stereo not drawn)	inconclusive: 28.2 µM [inhibitor, single point]	
Cc1ccccc1NC(=O)COC(=O)c1cc(=O)[nH]c2ccccc12		inactive: -8.95%
O=C(COCc1cc(-c2ccc3c(c2)OCO3)on1)NCc1ccccc1Cl	inconclusive: 31.6 µM [inhibitor, single point]	

Compound	Potency	activity change, negative = inhibition
COc1ccc(Cc2nnc(/C=C/c3ccc(C)cc3)o2)cc1	inconclusive: 22.4 µM [inhibitor, single point]	
CCN(Cc1ccncc1)C(=O)CCC[C@@H]1[C@H]2CCCN3CCC[C@@H](CN1Cc1cccnc1)[C@@H]23	active: 28.2 µM	
Cc1ccc(CNC(=O)CCc2ncc(-c3ccc(C)c(C)c3)o2)cc1		inactive: -2.29%
COC(=O)c1ccc(/C=C2/SC(=O)N(C(C)C(=O)OC)C2=O)cc1 (stereo not drawn)		inactive: -29.5%
Cn1c(COc2ccc3c(c2)CCCC3)nnc1SCC(=O)NC1CCCCC1		inactive: 17.1%
COc1ccc(Cc2nc3nccc(-c4cccc(OC)c4)n3n2)cc1	active: 20 µM	
N#CCC(=O)Nc1ccc(C(=O)OCc2cccc(Cl)c2)cc1		inactive: -4.01%
O=C(c1ccc(F)cc1)N1CCN(c2ccc([N+](=O)[O-])cc2-n2cccc2)CC1		inactive: -12.8%
O=C(CN(CC1CCCO1)C(=O)CNS(=O)(=O)c1ccc(Cl)cc1)NCc1ccco1 (stereo not drawn)		inactive: 9.12%
O=C(Nc1ccc(-c2nnc3n2CCCC3)cc1)c1ccc(Cl)cc1		inactive: 19.6%
Cc1cccc(C)c1NC(=O)CN(C)Cc1cc(=O)oc2c(C)c(O)ccc12	inconclusive: 25.1 µM [inhibitor, partial curve, poor fit]	
O=C(CNC(=O)c1cc(=O)[nH]c2ccccc12)NC1CC1	inconclusive: 39.8 µM [inhibitor, single point]	
COc1cc(NC(=O)CSc2nc3nc(C)c(Cc4ccc(C)cc4)c(C)n3n2)cc(OC)c1OC	inconclusive: 15.8 µM [inhibitor, partial curve, poor fit]	
CC[C@H]1CN(C(=O)Nc2cccc(C(F)(F)F)c2)CC[C@H]1CC(=O)N(C)CC#N	inconclusive: 31.6 µM [inhibitor, single point]	
Cc1ccc(CSc2nnc(COc3ccc(Cl)c(C)c3)n2C)cc1		inactive: -3.82%
COC(=O)c1ccc(Oc2c(C)oc3cc(OCc4ccccc4F)ccc3c2=O)cc1	inconclusive: 25.1 µM [inhibitor, partial curve, poor fit]	
Cc1ccc2c(=O)cc(C(=O)Nc3cccc(Cl)c3)oc2c1C		inactive: 10.8%
CCCCN1CCN(C(=O)c2cnc(-c3ccccc3)nc2-c2ccncc2)CC1		inactive: 12.6%
Cc1c(NC(=O)C(C)(C)Oc2ccc(Cl)cc2)cccc1-c1nc2ncccc2o1	inconclusive: 15.8 µM [inhibitor, partial curve, poor fit]	
O=C(N[C@H]1CO[C@H]2[C@@H]1OC[C@@H]2Nc1nccc(C2CCCC2)n1)c1ccco1	inconclusive: 31.6 µM [inhibitor, single point]	
CCNC(=O)C1C(c2cccc(NC(=O)c3ccccc3)c2)OC(=O)N1Cc1ccccc1 (stereo not drawn)		inactive: 13.2%
C=CCN1CCN(C(=O)c2nnn3cc(-c4ccccc4)[nH]c(=O)c23)CC1	active: 28.2 µM	
COc1ccc2c(c1)c(=O)c(S(=O)(=O)c1ccc(C)cc1)cn2Cc1ccccc1C	inconclusive: 28.2 µM [inhibitor, partial curve, poor fit]	

Compound	Potency	activity change, negative = inhibition
Cc1ccc(NC(=O)CCC(=O)N2CCSc3ccccc32)cc1Cl	inconclusive: 5.01 µM [inhibitor, partial curve, poor fit]	
COC(=O)C(C)n1nnc2sc(-c3ccccc3)cc2c1=O (stereo not drawn)	inconclusive: 35.5 µM [inhibitor, partial curve, poor fit]	
CCc1[nH]c2c(CNC(=O)C(C)O)cc(C)cc2c1C (stereo not drawn)	active: 31.6 µM	
COc1ccc(-n2nc3n(c2=O)CCN(C(=O)c2ccc(C)cc2)C3)cc1		inactive: 8.74% [at 115 µM]
COc1ccc2nc(C[C@@H]3C[C@@H](C(C)C)[C@H](CNC(=O)CC4(CC(=O)O)CCCC4)C=C3C)[nH]c2c1	inconclusive: 14.1 µM [inhibitor, partial curve, poor fit]	
Cc1ccc(CN2C(=O)[C@@H]3C[C@@H](O)CN3C3(CN(Cc4cccc(F)c4)C3)C2=O)o1	inconclusive: 39.8 µM [inhibitor, single point]	
Cc1noc2c(-c3cccc(CO)c3)cc(-c3cccs3)nc12	inconclusive: 39.8 µM [inhibitor, partial curve, poor fit]	
O=C(NC1CCNCC1)c1cc(C2CC2)nc2onc(C3CCNC3)c12 (stereo not drawn)	active: 79.4 µM	
Cc1ccc(OCCN(C)Cc2cc(=O)oc3c(C)c(O)ccc23)cc1	inconclusive: 22.4 µM [inhibitor, single point]	
CCN(CCCNC(=O)CSc1cc(=O)n(CC)c2ccccc12)c1cccc(C)c1	inconclusive: 0.891 µM [inhibitor, partial curve, poor fit]	
CC(Sc1cn(CCNC(=O)c2ccccc2F)c2ccccc12)c1ccccc1 (stereo not drawn)	inconclusive: 15.8 µM [inhibitor, partial curve, poor fit]	
CCOc1ccccc1C(=O)NCc1nnc2cc(-c3nc(C)no3)ccn12	inconclusive: 12.6 µM [inhibitor, partial curve, poor fit]	
Cn1nccc1CN1CC2(C1)NC(=O)c1ccccc1O2		inactive: 5.81% [at 86.2 µM]
COc1ccc(C(=O)NCC2CCCCC2)cc1S(=O)(=O)N(C)C		inactive: 3.79%
CCC(C(=O)Nc1ccccc1OC)n1nc(C)c2sc3ccccc3c2c1=O (stereo not drawn)	inconclusive: 22.4 µM [inhibitor, single point]	
CN1CC(=O)N(C2CCNC2)Cc2c(NCCCN3CCCCC3)ncnc21 (stereo not drawn)	inconclusive: 50.1 µM [inhibitor, partial curve]	
COc1cc(/C=N/NC(=O)c2cccc(C)c2)ccc1OCC(=O)Nc1ccccc1	inconclusive: 39.8 µM [inhibitor, single point]	
COc1cc(C(=O)N2CCc3c([nH]c4ccccc34)C2c2ccc(C)cc2)cc(OC)c1OC (stereo not drawn)	inconclusive: 1.78 µM [inhibitor, full curve, poor fit]	
Cc1ccc(C(=O)N[C@@H]2CN(Cc3ccncc3)C[C@H]2CN(C)C)cc1C	inconclusive: 35.5 µM [inhibitor, single point]	
O=C(NCc1ccccc1F)c1ccc2c(c1)CN(CC1=Cc3ccccc3OC1)CCO2		inactive: -13.7%
O=C(c1ccoc1)N1CCN(c2cc(C3CC3)ncn2)CC(O)C1 (stereo not drawn)		inactive: 18.3%
Cc1cc(C(=O)N2CCC3(CCCN(C(C)C)C3=O)C2)c(-c2ccccc2)o1 (stereo not drawn)	inconclusive: 35.5 µM [inhibitor, partial curve, poor fit]	
